The source of these data is PubChem BioAssay AID1346428 (National Center for Advancing Translational Sciences (NCATS), 2018).

Several values for one entry are separate records, joined by “and”; a condition that tells them apart may be missing. Equal values may be shown once. Hit rate of the full screen: of about 48,000 compounds, about 1,200 (2.5%) were called active. Another 2% or so got no clear call; they are omitted.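 Rule for the calls: active = activation of at least 60% and not above a set upper limit (about 1 call in 100 departs from these limits); inconclusive = activation of 40% to 60%, or above that upper limit; inactive = activation under 40%.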 Some of the results follow.

Chain of UniProt O75388 (O75388 whole entry, looked up): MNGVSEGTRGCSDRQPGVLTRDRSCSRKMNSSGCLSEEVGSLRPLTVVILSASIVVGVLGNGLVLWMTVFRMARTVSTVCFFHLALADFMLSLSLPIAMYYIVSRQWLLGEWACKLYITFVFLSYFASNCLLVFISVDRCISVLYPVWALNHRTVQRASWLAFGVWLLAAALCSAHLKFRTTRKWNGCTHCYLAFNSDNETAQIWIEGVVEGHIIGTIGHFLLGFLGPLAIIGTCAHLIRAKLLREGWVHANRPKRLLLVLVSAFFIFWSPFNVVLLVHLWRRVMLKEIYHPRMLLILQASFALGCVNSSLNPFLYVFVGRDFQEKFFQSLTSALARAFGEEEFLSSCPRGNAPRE

For the experiment, the target named is Probable G-protein coupled receptor 32 (Homo sapiens) (UniProt O75388). In words: qHTS for Agonists of Human Resolvin D1 Receptor DRV1. Note: 0% is about no effect. As to conditions: CHO-K1 GPR32 beta-arrestin PathHunter luminescence, 90 min; at 76.9 µM; active compounds read high; zero percent set by DMSO-only wells. A digest of the protocol:
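PathHunter beta-arrestin recruitment in CHO-K1 cells stably expressing ProLink-tagged GPR32. Cells were exposed to compound for 90 min at 37 C, then chemiluminescence was read after 1 h detection at ambient temperature; DMSO served as basal control.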
(In qHTS, concentration-response curves come from the screen itself.)
On to `CC(C)(C)NCC(O)COc1cccc2c1C[C@H](O)[C@H](O)C2` (some centres undefined), for which the activation was inactive: -19.3%.
With `CC(CCc1ccccc1)NC(=O)CSc1n[nH]c(-c2ccccc2)n1` (centres undefined) the figure was inactive: 13.5%; with `CCCCNC(=O)CCC(=O)NNc1nc2ccccc2c2nc(C)nn12`, inactive: 6.1%; with `Cc1nn(C(C)C(=O)NCc2ccc(OC(C)C)cc2)c(=O)c2c1sc1ccccc12` (centres undefined), inactive: -16.4%.
Regarding `Cc1ccc(C(=O)N(Cc2ccc(N(C)C)cc2)CC2CCCO2)cc1` (centres undefined), the activation is inactive: -19.8%.
As for `COc1cc(C2CC(=O)Nc3cc4c(cc32)OCO4)cc(OC)c1O` (centres undefined), the activation is inactive: 13.5%.
As for `Cc1c(C)n(Cc2ccc(Cl)cc2)c2ccc(C(=O)N3CCN(c4ccccc4F)CC3)cc12`, the activation is inactive: -26.9%.
Turning to `COc1cccc(NC(=O)Cn2c(=O)oc3cc(S(=O)(=O)N4CCCCC4)ccc32)c1`, the activation is active: 116%.
Then `Cc1ccc(C(=O)c2oc3ccccc3c2NC(=O)COc2ccc(Cl)c(C)c2)cc1`, with inactive: -13.6%.
`COc1ccc(OC)c(CCNC(=O)c2nc(-c3ccc(Cl)cc3)n3c2CCCCC3)c1`: the activation was inactive: -13.9%.
As for `COCCc1ccc(OCC(O)CNC(C)C)cc1` (centres undefined), the activation was inactive: -25.5% and inactive: -9.16%.
As for `CC(C)COc1ccc(C(=O)N2CCCCC2CCN2CCOCC2)cc1` (centres undefined), the activation was inactive: -2.34%.
Then `CCc1cccc(CC)c1NC(=O)CN(C)S(=O)(=O)c1ccc2c(c1)n(C)c(=O)c(=O)n2C`, with inactive: -4.66%.
As for `CSc1nn(Cc2ccc(F)cc2)c(N(C(C)=O)C(C)=O)c1S(=O)(=O)c1ccccc1`, the activation is inactive: 25.8%.
With `COc1cccc(CNC(=O)C2CCCN(c3nnc(-n4c(C)ccc4C)s3)C2)c1OC` (centres undefined) the figure was inactive: -5.47%.
Then `Cc1ccc(C(=O)CSc2nc(C)cc(C)c2C(=O)Nc2cccc(C)c2)cc1`, with inactive: -25.8%.
Regarding `CC(=O)N1CCCc2ccc(NC(=O)c3ccc(OC(C)C)cc3)cc21`, the activation is inactive: 1.37%.
Take `Cc1ccc2nc(COc3ccccc3NC(=O)Nc3ccc(F)c(Cl)c3)cc(=O)n2c1`: the activation was inactive: -9.45%.
With `CCSc1nc(-c2ccc(OC)cc2)nc2c1Cc1c(CO)cnc(C)c1O2` the figure was inactive: 1.06%; with `Cc1cccc(NC(=O)CSc2cn(CC(=O)N3CCOCC3)c3ccccc23)c1C`, inactive: -24.4%.
On to `O=C(Nc1ccc(OC(F)(F)F)cc1)c1cc(-c2ccc(Cl)cc2)on1`, for which the activation is inactive: 22.1%.
For `Cc1nc2c3ccccc3nc(NNC(=O)CCC(=O)N3CCN(c4ccc(F)cc4)CC3)n2n1`, the activation is inactive: -36.1%.
On to `Cc1ccc(-n2c3nc(=O)n(C)c(=O)c-3cc3ccccc32)c(C)c1`, for which the activation was inactive: 3.49%.
For `CCC(=O)N1CCc2cc(Br)cc(S(=O)(=O)N3CCCC(C(=O)NCc4ccc(C)cc4)C3)c21` (centres undefined), the activation is inactive: -0.543%.
Then `COc1ccc(/C=C/c2nc(C#N)c(N3CCCCC3)o2)cc1OC`, with inactive: 3.56%; and `COc1ccc(S(=O)(=O)c2c(Nc3cccc(Cl)c3)sc(C(=O)c3ccccc3)c2N)cc1`, with inactive: -48.8%.
On to `COc1cccc2cc(-c3nc4sc5c(c4c(=O)[nH]3)CCC(C(C)(C)C)C5)c(=O)oc12` (centres undefined), for which the activation is inactive: 6.66%.
Then `CCCCN(Cc1cc2cc(C)ccc2[nH]c1=O)C(=O)c1cccc(Cl)c1`, with inactive: -3.33%; and `Cc1cc2c(cc1S(=O)(=O)NCc1ccc(F)cc1)OCCN2C`, with inactive: -26.1%.
With `Cc1ccc2c(=O)cc(C(=O)Nc3c(C)cccc3C)oc2c1` the figure was inactive: 7.27%.
Then `CCc1ccc(NC(=O)Cn2ncn3c(cc4ccccc43)c2=O)cc1`, with inactive: -22.9%; and `COc1ccc(N2CCN(CCCNC(=O)c3c(C)nn(-c4ccc(F)cc4)c3-n3cccc3)CC2)cc1`, with active: 63.4%; and `CCOC(=O)N1CCc2c(sc3c2c(=O)n(-c2ccc(CC)cc2)c(=O)n3Cc2ccc(F)cc2Cl)C1`, with inactive: -17.9%.
Turning to `COc1ccccc1N1CCN(C(=O)c2cc3c(=O)n(Cc4cccs4)ccc3nc2C)CC1`, the activation is inactive: -19.5%.
`CCOc1ccc2nc(N3CCCC(C(=O)NCCc4ccc(Cl)cc4)C3)sc2c1` (centres undefined): the activation was inactive: -14.8%.
For the compound `CCOC(=O)c1c(NC(=O)Cc2coc3ccc(CC)cc23)sc2c1CCC2`, the activation was inactive: -9.82%.
For `CCOc1ccc(NC(=O)Cn2nc(Cc3cccnc3)c3ccccc3c2=O)cc1`, the activation was inactive: -1.92%.
Consider `COc1ccccc1NC(=O)N1CCN(c2ccc3nnc(-c4ccc(F)cc4)n3n2)CC1`, for which the activation was inactive: 5.47%.
With `Cc1cccc(N2CCN(c3ccc4cc(S(=O)(=O)N5CCC(C)CC5)ccc4n3)CC2)c1C` the figure was inactive: -3.01%.
Then `CC(C)C(=O)Nc1nnc(S(=O)(=O)N2CCc3ccccc32)s1`, with inactive: -5.97%; and `CCOC(=O)c1c(C)oc2ncnc(Nc3cccc(C(F)(F)F)c3)c12`, with inactive: 3.19%.
Consider `CCc1ccc(NC(=O)CC(NCc2cccnc2)C(=O)O)cc1` (centres undefined), for which the activation is inactive: -1.08%.
For the compound `O=c1oc2ccccc2cc1-c1cn2cc(Cc3ccc(F)cc3)sc2n1`, the activation is inactive: -7.17%.
With `Cc1ccc(OCC(=O)Nc2ccc(OCc3cc(=O)n4c(C)csc4n3)cc2)cc1C` the figure was inactive: -16.1%; with `Cc1ccc(Cn2ccnc2SCC(=O)NCc2ccccc2)cc1`, inactive: -7.91%; with `CCOc1ccccc1Nc1sc(C(=O)c2ccccc2)c(N)c1C(=O)Nc1ccc(F)cc1`, inactive: -50.9%.
Then `COc1ccc(CNC(=O)C(=O)NCC(c2ccco2)S(=O)(=O)c2ccc(Cl)cc2)cc1` (centres undefined), with inactive: -15.5%; and `Cn1c(=O)c2c(nc(SCC(=O)Nc3ccccc3F)n2Cc2ccccc2F)n(C)c1=O`, with inactive: 3.98%.
With `CCOC(=O)c1cccc(NC(=O)Cn2ncc3c(=O)oc4ccccc4c32)c1` the figure was inactive: 4.2%; with `Cc1ccc(NC(=O)c2ccc3c(c2)NC(=O)c2ccccc2S3)c(Cl)c1`, inactive: -11.5%; with `Cc1nn(CC(=O)NC2CC2)c(=O)c2cc3cc(F)ccc3n12`, inactive: 1.89%.
`CSc1ccc(CCNC(=O)Cn2nc(C)n3c(cc4sccc43)c2=O)cc1`: the activation is inactive: -12.5%.
With `Cc1nc(-c2ccc(Cl)cc2)sc1CCNC(=O)C(=O)Nc1ccc2c(c1)OCO2` the figure was inactive: 13.9%; with `COc1cccc(/C=C/c2nc(C#N)c(N3CCN(C)CC3)o2)c1`, inactive: -0.806%.
